# The supplement of paper PMC7826260
# The other results are listed elsewhere or left out. The data describe in vitro nicking of single-stranded DNA by Rep domains (1 h at 37 °C, 3 µM enzyme); the outer parts of the 90-letter strands are left off. Numbers give uncut DNA relative to the enzyme-free pool, as log2; strong cutting gives strongly negative numbers. There is no active / inactive call. The scaling is to total reads, so uncut sequences can rise above 0 when many others are cut.
# What was measured:
# Assay in all cases: uncleaved DNA left, log2 of reads against the no-enzyme library (log2 ratio); higher = less cleavage (more negative = more Rep cleavage of the k-mer); sequences stand for … in CTCGTCCG…ACCGGAGA
# [1] = tested on: T1, Rep nickase domain of Muscovy duck circovirus
# T1 sequence (Rep 1-111, printed without the tag): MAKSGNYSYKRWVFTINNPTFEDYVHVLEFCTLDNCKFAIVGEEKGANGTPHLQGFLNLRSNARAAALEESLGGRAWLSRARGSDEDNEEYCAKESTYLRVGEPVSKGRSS
# Method: (§1)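 A pool of 90-nt single-stranded DNAs with seven random bases just before the constant AC of the nick site (name = the seven bases) was cut by 3 µM recombinant His6-SUMO-tagged Rep nickase domain (300 nM DNA, 50 mM HEPES pH 8.0, 50 mM NaCl, 1 mM MnCl2, 1 h, 37 °C, three replicates). Uncut DNA was amplified and sequenced.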
# [2] = tested on: T2, Rep nickase domain of banana bunchy top virus
# T2 sequence (Rep 1-94, printed without the tag): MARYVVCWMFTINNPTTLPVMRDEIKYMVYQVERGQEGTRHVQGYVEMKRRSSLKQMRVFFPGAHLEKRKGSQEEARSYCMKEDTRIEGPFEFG
# Method: as §1
# [3] = tested on: T3, Rep nickase domain of cabbage leaf curl virus
# T3 sequence (Rep 1-116, printed without the tag): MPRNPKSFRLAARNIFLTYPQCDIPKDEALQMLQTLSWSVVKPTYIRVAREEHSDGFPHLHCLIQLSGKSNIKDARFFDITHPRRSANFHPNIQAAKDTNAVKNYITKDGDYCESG
# Method: as §1
# [4] = tested on: T4, Rep nickase domain of chickpea chlorotic dwarf virus
# T4 sequence (Rep 1-124, printed without the tag): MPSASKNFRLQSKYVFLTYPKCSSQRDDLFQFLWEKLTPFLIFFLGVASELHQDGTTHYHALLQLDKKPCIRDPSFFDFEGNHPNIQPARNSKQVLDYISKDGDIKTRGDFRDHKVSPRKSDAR
# Method: as §1
# [5] = tested on: T5, Rep nickase domain of faba bean necrotic yellows virus
# T5 sequence (Rep 1-98, printed without the tag): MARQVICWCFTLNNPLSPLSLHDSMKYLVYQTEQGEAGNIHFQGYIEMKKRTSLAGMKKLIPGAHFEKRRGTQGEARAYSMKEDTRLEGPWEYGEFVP
# Method: as §1
# [6] = tested on: T6, Rep nickase domain of maize striate mosaic virus
# T6 sequence (Rep 1-117, printed without the tag): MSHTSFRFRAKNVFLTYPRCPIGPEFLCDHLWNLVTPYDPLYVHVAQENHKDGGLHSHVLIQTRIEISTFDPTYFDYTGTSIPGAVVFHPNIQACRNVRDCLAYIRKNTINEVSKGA
# Method: as §1
# [7] = tested on: T7, Rep nickase domain of porcine circovirus 2
# T7 sequence (Rep 2-116, printed without the tag): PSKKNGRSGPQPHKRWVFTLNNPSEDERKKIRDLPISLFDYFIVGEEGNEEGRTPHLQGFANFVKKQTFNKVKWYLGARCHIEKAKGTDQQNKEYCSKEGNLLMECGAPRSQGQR
# Method: as §1
# [8] = tested on: T8, Rep nickase domain of tomato golden mosaic virus
# T8 sequence (Rep 1-124, printed without the tag): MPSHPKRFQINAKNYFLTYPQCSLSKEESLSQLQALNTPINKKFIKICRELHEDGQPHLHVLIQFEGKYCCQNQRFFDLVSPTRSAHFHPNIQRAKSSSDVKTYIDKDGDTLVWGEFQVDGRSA
# Method: as §1
# [9] = tested on: T9, Rep nickase domain of tomato yellow leaf curl virus
# T9 sequence (Rep 1-136, printed without the tag): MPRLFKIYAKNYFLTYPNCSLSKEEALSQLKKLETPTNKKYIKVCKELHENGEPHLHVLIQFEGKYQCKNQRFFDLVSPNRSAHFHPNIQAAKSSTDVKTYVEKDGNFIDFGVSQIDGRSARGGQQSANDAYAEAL
# Method: as §1
# [10] = tested on: T10, Rep nickase domain of wheat dwarf virus
# T10 sequence (Rep 1-137, printed without the tag): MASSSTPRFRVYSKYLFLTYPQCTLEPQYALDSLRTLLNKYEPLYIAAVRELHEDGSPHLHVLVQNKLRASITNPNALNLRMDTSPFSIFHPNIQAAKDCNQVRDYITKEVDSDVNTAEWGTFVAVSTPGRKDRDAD
# Method: as §1
Sequence,uncleaved DNA left (log2) [1],uncleaved DNA left (log2) [2],uncleaved DNA left (log2) [3],uncleaved DNA left (log2) [4],uncleaved DNA left (log2) [5],uncleaved DNA left (log2) [6],uncleaved DNA left (log2) [7],uncleaved DNA left (log2) [8],uncleaved DNA left (log2) [9],uncleaved DNA left (log2) [10]
CGCCCAG,-0.0876,-0.128,-0.647,-0.335,-0.201,-0.734,-0.00573,-0.0976,-0.0258,-0.178
GAGGAAG,0.185,0.025,-0.114,0.168,-0.0731,-0.456,0.0884,0.076,0.00577,-0.0621
ATTACAT,-0.11,0.102,0.29,-1.04,0.059,0.146,-2.01,-0.0397,0.129,0.159
CCCGACT,-0.229,-0.142,-0.0771,-0.773,-0.132,0.405,-0.223,0.0565,-0.208,-0.166
TGGGTCC,0.0313,0.107,0.697,1.33,-0.0104,1.82,0.218,-0.0133,0.0603,0.127
ATCTGCA,-0.0489,-0.198,-0.534,-0.747,0.0171,-0.999,-0.076,-0.0959,-0.0659,-0.119
ACGACTT,-0.0429,0.101,0.161,0.285,0.0904,1.45,-0.093,0.0734,-0.00623,0.197
TATCTGA,-0.0255,-0.0172,0.0228,0.115,0.0489,0.486,0.0428,-0.0267,0.00317,0.00155
CTCATAC,0.072,-0.0481,-0.248,-0.991,-0.121,-0.821,-0.0997,-0.0601,-0.0276,-0.0996
GCGCTAG,0.0192,0.0868,-0.0477,0.297,0.0272,-0.0954,0.0641,0.0489,0.0385,0.12
TCCGTCG,-0.13,-0.207,-0.811,-0.133,-0.194,-0.868,-0.0895,-0.259,-0.0761,-0.234
GGACTGT,-0.041,0.0172,0.55,1.59,0.0887,2.08,0.15,0.0217,0.0295,0.136
GGGGATG,0.0168,0.0946,0.634,1.58,-0.0403,2.1,0.206,-0.053,-0.015,0.0055
CATGCGA,-0.0766,-0.107,-0.728,0.287,-0.0357,-0.439,0.11,-0.131,-0.0138,-0.195
AGCCAAG,0.0141,0.134,-0.345,-0.365,0.0486,-0.695,0.272,0.111,0.0813,0.0397
AGATAAT,-3.16,0.0839,-0.47,-1.42,-0.0225,0.187,-3.35,0.0208,0.178,-0.659
GTATAAT,-0.401,0.0982,0.326,0.706,0.0992,1.72,-0.996,0.14,0.167,0.0791
CAAATCC,0.0224,0.143,-0.133,-0.517,-0.0389,-0.601,0.00147,-0.00323,0.0293,0.046
CAGATAA,-0.0176,0.123,-0.174,-0.381,0.0234,-0.5,-0.151,0.02,0.0571,0.00461
CGTATCG,0.0355,0.0373,-0.799,-0.136,0.00251,-1.02,0.123,-0.199,0.0505,-0.0862
TCCAGCT,0.0397,-0.0186,-0.212,-0.745,0.0645,-0.589,0.0716,-0.0646,-0.208,0.00837

Sequence,uncleaved DNA left (log2) [1],uncleaved DNA left (log2) [2],uncleaved DNA left (log2) [3],uncleaved DNA left (log2) [4],uncleaved DNA left (log2) [5],uncleaved DNA left (log2) [6],uncleaved DNA left (log2) [7],uncleaved DNA left (log2) [8],uncleaved DNA left (log2) [9],uncleaved DNA left (log2) [10]
AGAAATT,0.113,0.098,0.106,-1.8,-0.0459,0.221,-1.2,0.0733,0.158,0.0306
TCGGCCG,0.117,0.0775,-0.847,-0.42,-0.0523,-1.05,0.178,-0.0647,0.00339,-0.0829
CCAGAAG,0.0839,0.145,-0.506,-0.247,0.254,-0.954,0.247,0.031,0.0657,-0.00608
GGCAGGC,0.072,0.00125,0.561,1.21,-0.0801,1.39,0.128,-0.0749,0.0384,0.0675
TCTTAGG,0.0327,0.11,0.457,1.43,0.147,1.85,0.0686,0.178,-0.115,-0.0349
CCAAAGG,-0.0405,0.0376,0.318,1.08,0.0713,0.349,0.204,0.0459,0.019,0.0856
GATACGA,0.0794,0.11,0.071,0.362,0.0667,-0.0413,0.173,0.0799,-0.0427,0.0914
TTTTTTG,0.0354,-0.0454,-0.528,-0.631,0.0676,-1.09,0.0611,-0.0723,-0.0298,-0.0756
GTAGAAA,0.131,0.163,0.449,0.992,0.0239,1.75,0.205,0.222,0.21,0.225
GCCAGAC,-0.171,-0.122,0.298,0.876,-0.0815,0.634,0.0478,-0.0734,-0.0652,-0.0236
CTTCGGG,0.0693,0.0288,-0.183,-0.0846,-0.00462,-0.743,0.105,0.0446,0.0347,0.00111
GGATGAG,0.0164,-0.0503,-0.266,0.233,0.0293,-0.302,0.182,0.0621,0.0978,-0.000923
AGCGTAT,0.18,0.142,0.229,0.349,0.136,1.06,-0.156,0.0927,0.154,0.0781
GCTTATT,-2.74,-1.2,-0.278,-1.56,-0.149,0.257,-2.91,-0.00126,0.0901,-0.447
GGAGTTT,0.101,-0.0201,0.597,1.05,-0.0825,1.85,0.0748,0.0968,0.0138,0.0786
TATATGC,0.0321,-0.0104,-0.554,-0.532,0.0243,-1.13,0.128,-0.0322,0.0611,0.0203
GTGGTAA,0.0467,0.0725,0.382,0.944,-0.0951,1.84,0.0533,0.125,0.0781,0.132
GCCAGAT,-0.0391,0.0211,0.244,0.832,-0.183,0.941,0.124,0.0797,-0.136,0.0436
CTTATTA,-0.0823,0.0696,0.00952,-1.1,0.0612,-0.485,-0.246,-0.0219,0.119,0.0612
GTAGTCC,0.005,0.0669,0.318,0.803,-0.103,1.57,0.102,0.0636,0.0351,0.096
CACATTA,-0.243,0.097,-0.378,-1.93,-0.00189,-0.842,-0.0715,-0.0799,-0.0604,-0.104

Sequence,uncleaved DNA left (log2) [1],uncleaved DNA left (log2) [2],uncleaved DNA left (log2) [3],uncleaved DNA left (log2) [4],uncleaved DNA left (log2) [5],uncleaved DNA left (log2) [6],uncleaved DNA left (log2) [7],uncleaved DNA left (log2) [8],uncleaved DNA left (log2) [9],uncleaved DNA left (log2) [10]
TCATCTA,-0.175,0.00521,0.0299,-1.27,-0.0514,-0.498,-0.217,-0.0745,-0.068,0.0793
ATGCGCT,0.0901,-0.0626,-0.591,-0.866,-0.15,-1.03,0.00154,-0.176,-0.0517,-0.105
AACCGAG,-0.000993,0.0386,0.585,1.31,-0.0142,0.311,0.184,-0.0186,0.0424,0.119
GGTAATA,0.115,0.054,0.478,1.3,0.116,1.93,0.0812,0.0715,0.156,0.215
GACAATA,0.071,0.0722,0.261,-0.602,0.114,0.86,0.19,0.0663,0.0534,0.163
GCGGATG,-0.0594,0.0154,-0.0706,0.633,-0.138,1.61,-0.0231,-0.0771,-0.175,-0.146
ACGACCT,0.0143,0.139,-0.0201,0.435,0.1,0.831,0.0469,0.115,0.0475,0.191
CAAAAGC,0.017,0.0389,-0.285,-0.493,0.018,-1.01,0.122,0.0374,0.0742,-0.0907
CATCTAC,-0.0472,-0.0228,-0.183,-1.99,-0.0478,-0.534,0.0473,-0.0186,0.138,0.0233
GCCTCAA,-0.0128,0.0773,0.0729,0.367,-0.0674,0.173,0.0262,-0.0237,0.00699,-0.0361
ACATATT,-3.58,-1.35,-1.88,-3.27,-0.171,-1.11,-3.48,-0.48,-0.0429,-0.738
CGTTAAG,0.00779,0.0927,-0.743,-0.206,0.0521,-0.932,0.162,-0.0697,0.11,-0.0728
CGTGTTA,-0.0789,0.0583,0.0909,0.138,0.0413,1.11,-0.105,0.141,0.0619,-0.0719
TAAATAG,0.0223,-0.0154,-1.17,-1.77,0.0446,-1.39,0.173,0.0522,-0.0507,-0.0889
CGGGTGG,0.0086,-0.115,-0.0966,0.391,-0.2,0.189,0.0127,-0.0512,-0.0719,-0.105
TAGTAGC,0.00106,-0.0286,-0.36,-0.602,-0.0422,-1.22,-1.61,-0.0319,-0.00595,-0.0744
CCGGCTT,-0.14,-0.221,-0.0319,-0.508,-0.198,0.644,-0.197,-0.13,-0.294,-0.217
GCGGACC,0.0619,0.0973,0.565,1.56,-0.0288,1.84,0.168,0.0634,0.0224,0.16
TGGGCGC,0.121,0.12,0.289,0.422,0.177,0.327,0.289,0.0759,0.0808,0.0417
TGCTCCA,-0.0287,-0.0383,0.142,-0.254,0.0295,0.106,-0.166,-0.0208,-0.00984,0.0693
